PubChem BioAssay AID488969 (Vanderbilt High Throughput Screening Facility, 2010)
Over roughly 110,000 compounds, “z-score” has its median near -0.1; the highest 2% begin near 2. Some of the results follow. Active and inactive are the calls of the source.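 Rule for the calls: active = z-score in the third read window above 3 or below -3; inactive = the rest.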 Residues, ends and D or L forms follow the SMILES beside them. *: point of attachment. Boc = CC(C)(C)OC(=O)*

Each compound was assayed against Metabotropic glutamate receptor 8 (Rattus norvegicus) (UniProt P70579) (assay: rat mGluR8 modulators via GIRK flux, primary screen, cell-based, thallium flux, HTS (AID 488969)). Settings: HEK293 rat mGluR8, GIRK (G protein-gated inwardly rectifying potassium channel) thallium flux, FluoZin2; at 10 µM; stronger effect = higher value; submaximal glutamate (EC20) added with thallium.
Chain of UniProt P70579 (P70579 whole entry, looked up): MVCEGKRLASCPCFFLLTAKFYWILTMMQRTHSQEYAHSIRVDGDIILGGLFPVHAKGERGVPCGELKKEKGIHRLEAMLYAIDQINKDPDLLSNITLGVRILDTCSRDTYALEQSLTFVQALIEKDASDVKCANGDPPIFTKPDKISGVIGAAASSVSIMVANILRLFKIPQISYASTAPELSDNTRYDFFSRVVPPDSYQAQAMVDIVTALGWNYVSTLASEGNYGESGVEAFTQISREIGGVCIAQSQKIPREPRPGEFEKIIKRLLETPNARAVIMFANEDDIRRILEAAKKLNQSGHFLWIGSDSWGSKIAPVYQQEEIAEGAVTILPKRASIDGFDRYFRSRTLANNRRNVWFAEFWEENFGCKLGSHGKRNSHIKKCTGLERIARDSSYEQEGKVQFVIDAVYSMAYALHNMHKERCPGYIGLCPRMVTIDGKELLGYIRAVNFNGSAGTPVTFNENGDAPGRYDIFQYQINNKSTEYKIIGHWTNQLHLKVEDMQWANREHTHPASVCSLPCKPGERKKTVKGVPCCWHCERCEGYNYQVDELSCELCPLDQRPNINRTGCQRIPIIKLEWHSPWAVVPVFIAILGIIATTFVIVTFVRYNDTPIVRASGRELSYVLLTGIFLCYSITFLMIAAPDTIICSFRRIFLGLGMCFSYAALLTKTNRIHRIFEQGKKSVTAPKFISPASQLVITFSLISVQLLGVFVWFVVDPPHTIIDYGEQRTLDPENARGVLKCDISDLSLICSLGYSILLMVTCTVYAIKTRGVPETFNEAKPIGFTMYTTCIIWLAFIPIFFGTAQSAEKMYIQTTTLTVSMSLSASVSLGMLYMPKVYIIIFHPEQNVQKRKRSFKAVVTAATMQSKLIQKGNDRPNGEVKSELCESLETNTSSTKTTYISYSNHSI
With `CN(C)CCC(=O)c1ccc2c(c1)OCO2` the z-score was -0.297.
Work on `CCN1CCN(CCC(=O)Nc2ccccc2OC)CC1` yielded a z-score of -1.36.
For `CC(=O)OC(C(=O)Nc1ccccc1C)C(OC(C)=O)C(OC(C)=O)C(OC(C)=O)C(=O)Nc1ccccc1C` (centres undefined), the z-score was -0.014.
For `COC(=O)/C(=C\C(=O)c1ccccc1)Nc1cccc(C(F)(F)F)c1`, the z-score was 0.432.
`O=C(NCc1ccccn1)c1ccc(CNS(=O)(=O)c2cccc(Cl)c2)cc1` showed a z-score of -0.352.
Work on `COc1ccc(-n2c3c(cc(C(=O)N4CCC(C)CC4)c2=O)C(=O)CC(C)(C)C3)cc1` yielded a z-score of -0.382.
`C=CCNC(=S)NNC(=O)c1ccccc1` showed a z-score of -0.00102.
`N#Cc1c(NC(=O)CSc2ccccn2)oc(-c2ccccc2)c1-c1ccccc1` showed a z-score of -0.344.
Work on `CC1CCN(C(=O)Cn2cc(C#N)c3ccccc32)CC1` yielded a z-score of -0.156.
`Cc1ccccc1OCC(O)Cn1c(NCc2ccco2)nc2c1c(=O)[nH]c(=O)n2C` (centres undefined) showed a z-score of -1.06.
Compound `COc1ccc(C2C(C(C)=O)=C(O)C(=O)N2CCO)c(OC)c1` (centres undefined) has a z-score of -0.182.
With `O=c1[nH]c2cc3c(cc2cc1C(c1nnnn1CC1CCCO1)N1CCCCCC1)OCCO3` (centres undefined) the z-score was -0.542.
Compound `Cc1noc(C)c1C(=O)Nc1ccccc1-c1ccccc1` has a z-score of 0.0781.
In the case of `Cc1cc(C)n(C(=O)c2ccc(C)o2)n1`, the z-score was -0.224.
`O=C(NCc1ccccn1)c1cc2ccccn2n1` was tested, and the z-score was 0.0675.
Work on `COc1cccc(C2C=C(c3ccc(OC)cc3OC)Nc3nnnn32)c1` (centres undefined) yielded a z-score of -0.65.
`COC(=O)CC1COc2ccccc2N1C(=O)c1ccc(C(C)(C)C)cc1` (centres undefined) showed a z-score of -0.191.
Work on `O=C1/C(=C\c2ccc(Br)o2)SC(=Nc2ccccc2)N1c1ccccc1` yielded a z-score of -0.222.
Work on `O=C(O)C1CCCCN1S(=O)(=O)c1ccc(Cl)s1` (centres undefined) yielded a z-score of -0.235.
`O=C1/C(=C/c2cccnc2)SC(=S)N1c1ccccc1` gave a z-score of -0.374.
`O=C(COC(=O)c1cccnc1Cl)NCc1ccc2c(c1)OCO2` gave a z-score of -0.0987.
Work on `CCOC(=O)N1CCC(NC(=O)CCc2c(C)nc3c(c(C)nn3C(C)(C)C)c2C)CC1` yielded a z-score of -0.421.
`Cc1ccc(-n2nc3c(c2NC(=O)CCC2CCCCC2)CS(=O)C3)cc1` (centres undefined) was tested, and the z-score was -0.015.
In the case of `CC(C)OCCCNC(=O)c1cc2c(s1)CS(=O)(=O)C2`, the z-score was -0.548.
With `Cn1c(COc2ccc3ccccc3c2)nnc1SCC(=O)OC1CCCCC1` the z-score was -0.0345.
In the case of `O=C/C(=C\Nc1ccccn1)c1nc2ccccc2o1`, the z-score was 0.716.
`CC(=C/c1ccco1)/C=N/N1CCN(c2ccccc2)CC1` gave a z-score of -0.195.
With `Cc1oc(-c2ccccc2)[n+]([O-])c1C` the z-score was -0.00439.
In the case of `COCCn1cc(C(=O)N2CCCC(C)C2)c2c3ccccc3n(C)c2c1=O` (centres undefined), the z-score was -0.26.
`COc1cccc(C=NCCNC(=O)c2nonc2N)c1O` was tested, and the z-score was -1.24.
Work on `CC(C(=O)Nc1ccc(C(=O)O)cc1)N1C(=O)c2ccccc2C1=O` (centres undefined) yielded a z-score of 0.789.
Compound `CCc1nc2ccccc2n(CC)c1=O` has a z-score of -0.551.
Work on `CC(/C=N/NC(=O)c1cc(-c2ccc3ccccc3c2)n[nH]1)=C\c1ccco1` yielded a z-score of -0.175.
In the case of `Cc1ccccc1N1C(=O)[C@@H]2Cc3ccccc3CN2C1=O`, the z-score was 0.85.
For `CCOc1ccccc1C1CC(c2ccc(F)cc2)Nc2nc(N)nn21` (centres undefined), the z-score was -0.0345.
With `CC(C)(C)n1nnnc1CN1CCN2CCCC2C1` (centres undefined) the z-score was 0.084.
Compound `COc1ccc(OC)c(N(CC(=O)NC2CC2)S(=O)(=O)c2ccc(C)cc2)c1` has a z-score of 0.0301.
`Cc1cc(C)c2nc(NC(=O)C3CCCO3)sc2c1` (centres undefined) showed a z-score of 0.217.
`O=C(Nc1ccccc1)C1C2CCC3C(CCC21)C3(Cl)Cl` (centres undefined) gave a z-score of -0.0996.
With `CCn1ccnc1C(O)c1cccc(OC)c1OC` (centres undefined) the z-score was -0.235.
For `CCOc1ccc(Cc2nnc(SCC(=O)c3ccc(OC)cc3)o2)cc1`, the z-score was 0.187.
With `CNC(=O)c1ccsc1NC(=O)c1ccc(Cl)s1` the z-score was 1.49.
In the case of `N=c1c(C(=O)NCc2ccco2)cc2c(=O)n3ccccc3nc2n1CCc1ccccc1`, the z-score was active: 4.11.
Work on `N#Cc1ccc(-c2ccccc2)nc1Sc1ccc(F)cc1` yielded a z-score of -0.3.
`O=C(NCCc1ccc(Cl)cc1)C1CCN(S(=O)(=O)c2cccs2)CC1` showed a z-score of -0.0567.
`O=c1cc(-c2ccccc2)n(S(=O)(=O)c2ccccc2)o1` gave a z-score of 0.355.
`O=C(c1c(F)c(F)c(F)c(F)c1F)N1CCN(c2cccc(C(F)(F)F)c2)CC1` gave a z-score of 0.255.
With `COCCCNC(=O)CC1Oc2ccccc2NC1=O` (centres undefined) the z-score was -0.27.
For `COc1ccc(NC(=O)Cc2c(Sc3ccccc3)c3ccccc3n2C)cc1`, the z-score was 1.3.
In the case of `O=C(Nc1ccc2ccccc2c1)c1ccc(NS(=O)(=O)c2ccc(Br)s2)cc1`, the z-score was 0.117.
`COC(=O)C(CC(=O)c1ccc(Cl)cc1)c1ccc(C)cc1` (centres undefined) gave a z-score of -0.155.
`COc1ccc(C(=O)NC2CCN(C(=S)Nc3cc(C)cc(C)c3)CC2)cc1` was tested, and the z-score was -0.0457.
`CCCCn1c(SCC(=O)Nc2cc(C)on2)nnc1-c1ccco1` showed a z-score of 1.3.
For `CCN(CC)S(=O)(=O)c1cccc(C(=O)N2CC(O)CC2C(=O)OC)c1` (centres undefined), the z-score was -0.00902.
`CC(C)c1ccc2c(c1)C1(NN=C(c3ccccc3)S1)C(=O)N2` (centres undefined) showed a z-score of 0.979.
`CCOC(=O)c1c(-c2ccc(C)o2)csc1N` showed a z-score of 0.883.
`COc1ccc2[nH]c(=O)c(CN(Cc3ccccc3)Cc3nnnn3CC3CCCO3)cc2c1` (centres undefined) gave a z-score of -0.572.
With `COc1cc(/C=N/NC(=S)Nc2cccc(C(=O)O)c2)cc(OC)c1OC` the z-score was -0.062.
Work on `CC1=C(C(=O)NCc2ccccc2)C(c2ccc(C)o2)n2ncnc2N1` (centres undefined) yielded a z-score of -0.0762.
`Cc1ccccc1CCNC(=O)C1CCN(S(=O)(=O)c2ccc(-n3cnnn3)cc2)CC1` gave a z-score of -0.299.
For `Cc1ccc(S(=O)(=O)N2CCC(C(=O)N[C@H](C(=O)NC3CCS(=O)(=O)C3)C(C)C)CC2)cc1` (some centres undefined), the z-score was -0.265.
In the case of `COC(=O)c1cc(C(=O)OC)n(Cc2ccc(F)cc2)n1`, the z-score was -0.248.
With `CC(NC(=O)c1cc(-c2ccc(Br)cc2)on1)c1ccccc1` (centres undefined) the z-score was -0.926.
With `Nc1nonc1/C(=N/O)N1CCCC1` the z-score was -0.326.
`COc1ccc(Cl)cc1N(CC(=O)N1CCC(C)CC1)S(C)(=O)=O` was tested, and the z-score was 0.568.
`CC1(C)CC(=O)c2cnc(N)nc2C1` was tested, and the z-score was -0.555.
`O=C(c1ccccc1)c1nn(-c2ccc(Cl)cc2)cc1C(=O)c1cc2ccccc2oc1=O` gave a z-score of -0.071.
With `CCOC(=O)c1c(C)c(C(=O)N2CCN(c3cccc(Cl)c3)CC2)c(C)n1C` the z-score was -0.749.
Work on `Clc1ccc(-c2cn3c(n2)CCC3)cc1` yielded a z-score of -0.273.
Compound `Cn1c(=NC(=O)c2ccco2)sc2cccc(F)c21` has a z-score of 0.0422.
`CCCCC12CN3CC(C)(CN(C1)C31C(=O)N(C)c3ccc(C)cc31)C2=O` (centres undefined) showed a z-score of 0.0179.
Work on `COc1c(N2CCN(C(=S)NCc3ccccc3)C(C)C2)c(F)cc2c(=O)c(C(=O)O)cn(C3CC3)c12` (centres undefined) yielded a z-score of -0.51.
Compound `COc1ccc2[nH]cc(C(=O)CNc3nc(C)cs3)c2c1` has a z-score of 0.42.
In the case of `CCCCNC(=O)CC(=O)Nc1ccccc1C(=O)O`, the z-score was 1.35.
Compound `CN(Cc1ccccc1)C(=O)CCn1c(=O)oc2ccccc21` has a z-score of 2.02.
`COc1ccc(C(=O)NC(=S)Nc2ccccc2F)cc1` showed a z-score of 0.595.
Compound `O=C(NC(=S)Nc1ccc(S(=O)(=O)N2CCCCC2)cc1)c1ccc(Cl)cc1` has a z-score of -0.168.
With `Cc1ccc(C(=O)CC(=O)COc2ccc(Cl)cc2C)cc1` the z-score was active: 5.45.
For `Cc1ccc(S(=O)(=O)Nc2nc(C)cc(N/N=C/c3ccc(O)cc3)n2)cc1`, the z-score was 0.778.
Compound `CC(=O)N1CCc2c(sc(NC(=O)c3ccc(S(=O)(=O)N(C)C)cc3)c2C#N)C1` has a z-score of 0.13.
`COc1cccc(OC)c1C(=O)Nc1ccc(S(=O)(=O)Nc2cc(C)nc(C)n2)cc1` was tested, and the z-score was -1.02.
Compound `Cc1ccc(C2CC(c3cccs3)=NN2C(=O)CSC2=NN3CCCC(=O)N=C3S2)cc1` (centres undefined) has a z-score of -0.0424.
Compound `Cc1nnc(NC(=O)c2ccc(C)c(S(=O)(=O)N3CCOCC3)c2)s1` has a z-score of 0.00698.
For `Cc1ccsc1C(=O)NNC(=O)C1CCCCC1C(=O)O` (centres undefined), the z-score was 0.42.
For `Cc1ccc(C)c(OCCn2cc(/C=C(/C#N)C(=O)NCC3CCCO3)c3ccccc32)c1` (centres undefined), the z-score was 0.112.
For `C=CCSC1=N/C(=C\c2cc(OC)c3c(c2)OCO3)C(=O)S1`, the z-score was 0.0902.
`CCC(=O)N1c2ccc(S(=O)(=O)N(CCO)Cc3ccccc3)cc2CC1C` (centres undefined) showed a z-score of -0.062.
In the case of `CCOCCCN1CN(S(=O)(=O)c2ccc(Cl)cc2)c2nc3ccccc3nc21`, the z-score was -0.388.
`CC(=O)OCC1OC(c2ccccc2)C(OC(C)=O)C(OC(C)=O)C1OC(C)=O` (centres undefined) gave a z-score of -0.205.
With `Cc1cc(=O)[nH]c(SCC(=O)c2ccc(C)c(C)c2)n1` the z-score was 0.98.
In the case of `COC(=O)c1sc2nc(N3CCCCC3)c3c(c2c1N)CC(C)(C)N(C)C3`, the z-score was 0.971.
`Cn1c(=O)[nH]c(=O)c2c1nc(N1CCN(Cc3ccccc3)CC1)n2CCCc1ccccc1` gave a z-score of -0.239.
`CCOc1ccc(Cn2c(O)cc(=O)[nH]c2=O)cc1` was tested, and the z-score was 0.565.
In the case of `O=C1CC(c2ccccc2)CC2=C1C(c1ccccn1)Nc1ccccc1N2` (centres undefined), the z-score was 0.618.
With `Cc1ccc(N2C(=O)NC(C(F)(F)F)(C(F)(F)F)C3=C2CC(C)(C)CC3=O)cc1` the z-score was -0.225.
`CC(C)(C)N/N=C/c1cc(Cl)cc([N+](=O)[O-])c1O` gave a z-score of 0.0144.
`N#CCC(=O)NCC1(c2ccccc2)CCCC1` showed a z-score of -0.301.
Compound `COc1ccc(CN2C(=O)c3cccnc3C2Nc2ccc(OC)c(Cl)c2)cc1` (centres undefined) has a z-score of -0.22.
`CCCCN(C)CCC(=O)Nc1ccc(Cl)cc1` gave a z-score of 0.137.
`Cc1ccc(OCC(=O)Nc2cccc(-c3nnc(-c4ccccc4)o3)c2)c(C)c1` was tested, and the z-score was -0.0668.
Compound `O=C(CCC(=O)Nc1nnc(C2CCCCC2)s1)NCc1cccs1` has a z-score of -0.0529.
With `Cc1ccc(NCC(=O)N/N=C/c2ccc(OC(=O)c3ccco3)cc2)cc1` the z-score was 0.0308.
In the case of `Cc1nc(SC(C(=O)c2ccccc2)c2ccccc2)nc2ccccc12` (centres undefined), the z-score was 1.63.
`O=C(CSc1nc2cc(Cl)ccc2s1)N1CCN(C(=O)c2ccco2)CC1` showed a z-score of -0.726.
Work on `CC(C)(C)OC(=O)N1CCCC1C(=O)NC(Cc1ccccc1)C(=O)O` (stereo not drawn) (Boc-Pro-Phe-OH; configuration not given here) yielded a z-score of -0.151.
In the case of `CCOC(=O)CSc1ncc(-c2ccccc2)nn1`, the z-score was -2.57.
`O=C(N/N=C\c1ccc(Cl)s1)c1cccs1` was tested, and the z-score was active: 8.64.
`O=C(COC(=O)/C=C/c1ccc(Cl)cc1)Nc1ccc2c(c1)OCCO2` gave a z-score of 0.0864.
Compound `Cc1ccn2cc(CNS(=O)(=O)c3ccc4c(c3)OCCO4)nc2c1` has a z-score of -0.0245.
